Laboratory results from article PMC4336329 (PLoS ONE, 2015).
Screen size: about 310,000 compounds; about 14,000 (4.5%) showed an effect of 50% or more. The effect is printed as a negative number. Some of the results follow.

Target: human ether-à-go-go-related gene (hERG) potassium channel (human, UniProt Q12809)
Experiment: primary screen, population patch clamp on CHO cells stably expressing hERG
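Also: peak tail current of the secondary pulse compared with the same well before compound.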

Sequence of human ether-à-go-go-related gene (hERG) potassium channel (Q12809 whole entry, looked up): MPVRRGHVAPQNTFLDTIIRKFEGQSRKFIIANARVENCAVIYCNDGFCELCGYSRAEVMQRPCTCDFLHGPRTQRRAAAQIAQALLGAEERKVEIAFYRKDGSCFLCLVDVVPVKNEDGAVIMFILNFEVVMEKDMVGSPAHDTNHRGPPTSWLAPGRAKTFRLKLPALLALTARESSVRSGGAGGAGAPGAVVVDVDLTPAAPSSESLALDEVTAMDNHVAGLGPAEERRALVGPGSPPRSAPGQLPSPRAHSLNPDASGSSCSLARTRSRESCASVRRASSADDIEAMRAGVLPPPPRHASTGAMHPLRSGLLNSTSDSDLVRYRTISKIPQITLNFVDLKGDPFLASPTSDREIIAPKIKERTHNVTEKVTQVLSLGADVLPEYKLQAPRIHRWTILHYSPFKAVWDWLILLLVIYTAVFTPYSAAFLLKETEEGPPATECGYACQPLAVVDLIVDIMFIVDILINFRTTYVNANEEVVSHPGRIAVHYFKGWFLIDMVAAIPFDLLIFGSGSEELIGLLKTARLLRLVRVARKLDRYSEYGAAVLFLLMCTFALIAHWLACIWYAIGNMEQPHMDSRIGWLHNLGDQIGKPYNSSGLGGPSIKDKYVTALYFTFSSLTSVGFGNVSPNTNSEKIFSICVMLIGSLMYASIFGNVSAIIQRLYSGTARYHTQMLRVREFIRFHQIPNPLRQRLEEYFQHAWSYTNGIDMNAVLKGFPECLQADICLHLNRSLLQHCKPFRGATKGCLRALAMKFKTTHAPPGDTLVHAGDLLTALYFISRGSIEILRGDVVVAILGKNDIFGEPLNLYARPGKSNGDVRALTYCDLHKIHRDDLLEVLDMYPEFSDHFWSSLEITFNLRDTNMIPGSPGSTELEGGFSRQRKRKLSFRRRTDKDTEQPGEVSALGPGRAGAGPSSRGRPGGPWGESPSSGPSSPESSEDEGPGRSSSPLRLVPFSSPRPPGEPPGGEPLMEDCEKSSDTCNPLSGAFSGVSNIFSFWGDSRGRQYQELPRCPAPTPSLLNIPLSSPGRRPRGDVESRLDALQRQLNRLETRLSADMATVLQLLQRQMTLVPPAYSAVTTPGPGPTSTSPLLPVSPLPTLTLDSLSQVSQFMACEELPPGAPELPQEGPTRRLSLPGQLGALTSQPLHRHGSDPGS

Structure (SMILES)	hERG current change (%, negative = inhibition) at 10uM
CC1Cc2ccccc2N1S(=O)(=O)c1cccc(C(=O)OCC(=O)NC2CCS(=O)(=O)C2)c1 (stereo not shown)	-34.8%
c1ccc(Cc2cc(-c3ccccc3)on2)cc1	4.06%
CC(C)N(CCn1c(SCC(=O)Nc2cccnc2Cl)nc2ccccc2c1=O)C(C)C	-69.7%
Cc1ccc(N2CC(C(=O)N3CCCc4ccccc43)CC2=O)cc1 (stereo not shown)	-18.8%
COc1cc(C(N)=O)cc(Br)c1OCc1ccccc1	2.25%
Cc1nc2ccccc2c(=O)n1/N=C/c1ccccc1F	6.07%
CN1CCN(C2CC(=O)N(c3ccc4c(c3)OCCO4)C2=O)CC1.Cl (stereo not shown)	14.1%
N#Cc1cccc(NC(=O)CCNC(=O)c2ccccc2Cl)c1	21.8%
COC(=O)CNC(=O)COC(=O)/C=C/c1cccs1	1.93%
COc1ccc(OC)c(NC(=O)COC(=O)/C=C/c2ccc(Cl)cc2)c1	-5.45%
COc1ccc(SC[C@H](Cc2ccccc2)N2CC[C@@H](C(C)(C)C)CCC2=O)cc1	9.92%
CC(=O)Nc1cccc(NC(=O)c2cc(-c3cccnc3)nc3ccc(Cl)cc23)c1	12.5%
CC1Cc2ccccc2N1C(=O)c1cnsn1 (stereo not shown)	3.84%
O=C(COc1ccc(S(=O)(=O)N2CCCCC2)cc1)N1CCOCC1	3.54%
CC(=O)N1CCN(C2=NC(=O)/C(=C/c3ccc(OS(=O)(=O)c4ccccc4)cc3)S2)CC1	-69.6%
O=C(CN1C(=O)NC(Cc2c[nH]c3ccccc23)C1=O)Nc1cccc(S(=O)(=O)N2CCCC2)c1 (stereo not shown)	1.65%
CC(C)(C)NC(=O)C(c1ccccc1)N(C(=O)c1ccco1)C1CC1 (stereo not shown)	-8.39%
COc1c(C)cccc1C(=O)NC(=S)Nc1ccccc1N1CCCC1	15.6%
CCc1ccc(NC(=O)C2CCN(S(=O)(=O)c3cccs3)CC2)cc1	-42.1%
O=C(NCc1ccc(N2CCCC2=O)cc1)c1cc(COc2c(F)cccc2F)on1	4.12%
CCC(=O)OCCn1c(=O)c2ccccc2c2ccccc2c1=O	1.82%
CCc1nn2c(=O)cc(CSCC(=O)Nc3ccccc3F)nc2s1	11.3%

Structure (SMILES)	hERG current change (%, negative = inhibition) at 10uM
CCCNC(=O)Cn1cnc2sc(C(=O)NCCN(CC)CC)c(C)c2c1=O	-1.05%
Cn1c(O)c(C=NCCN2CCN(C(=O)c3ccccc3)CC2)c(=O)n(C)c1=O	-16.6%
COC(=O)C1=C(c2ccccc2)C[C@@H]2CC[C@H]1N2C(=O)N1CCCC1	6.66%
Cc1cccc(NC(=S)Nn2cnnc2)c1C	11.3%
CCC(=O)c1ccc(OCC(=O)N(Cc2nnc(-c3ccccc3Cl)o2)C2CC2)cc1	-67.2%
COc1ccc(OCc2nnc(SCC(=O)N3CCOCC3)o2)cc1	12.4%
Cc1nnc(SCc2cc(=O)[nH]c(N3CCN(C)CC3)n2)s1	-4.73%
CCCSc1ccc(C(=O)Nc2ccc(Cl)cc2)cn1	11.6%
Cn1ncn2c(=O)c3c(nc12)-c1ccccc1CC31CCCC1	1.56%
CC(=O)Nc1cccc(NC(=O)CSc2ccc(C(F)(F)F)cc2[N+](=O)[O-])c1	2.3%
O=C(NCCOc1nc(N2CCCCC2)nc(N2CCOCC2)n1)Nc1ccccc1	-0.098%
CC(C)(C)CN1CCNC(=O)C1CC(=O)NCCc1ccccc1C(F)(F)F (stereo not shown)	-13.3%
CC(C)CN1C(=O)c2ccc(NC(=O)c3cccs3)cc2C1=O	-5.23%
O=S(=O)(NN1CCOCC1)c1ccc(Cl)s1	4.37%
Cc1c(C)n(-c2ccccc2)c2ncnc(NCCCN(C)C)c12	0.841%
FC(F)(F)c1cccc(NC(=S)NCC2COc3ccccc3O2)c1 (stereo not shown)	9.16%
CCOc1ccc(N(CC(=O)Nc2cccc(N(C)S(C)(=O)=O)c2)S(=O)(=O)c2ccccc2)cc1	-2.52%
Cc1cccc(NC(=S)NNc2ncc(C(F)(F)F)cc2Cl)c1	4.55%
COc1ccc(-c2ccc(SCC(=O)c3ccccc3)nn2)cc1OC	-15.7%
NNC(=S)Nc1cccc(-c2n[nH]c(=S)o2)c1	13.8%
O=[N+]([O-])c1cc([N+](=O)[O-])c(Oc2cccc(Cl)c2Cl)cc1NN1CCCCC1	9.77%
CCn1cc(/C=C(\NC(=O)c2ccccc2Cl)C(=O)NCCN2CCOCC2)c2ccccc21	-2.69%

Structure (SMILES)	hERG current change (%, negative = inhibition) at 10uM
Cc1ccc(S(=O)(=O)N2CCN(C(=O)CCC(=O)NCCc3ccc(F)cc3)CC2)cc1	-34.2%
NS(=O)(=O)c1cccc(NC(=O)CC2(CC(=O)O)CCCC2)c1	33.9%
CCOc1ccc(C(=O)NCC(=O)Nc2ccc(N3CCOCC3)cc2)cc1OCC	-1.2%
Cc1oc(C(=O)O)cc1COc1ccc2c(C)cc(=O)oc2c1	1.72%
COc1ccc(N2CCN(C(=O)c3ccccc3NS(=O)(=O)c3ccc(C)cc3)CC2)cc1	-0.438%
CC(O)CNCc1ccc(-c2ccccc2)cc1.Cl (stereo not shown)	-0.602%
COc1ccc(/C=C(/NC(=O)c2ccc(C)cc2)C(=O)N2CCCC2)cc1OC	-19%
CCOc1ccc(CCNC(=O)Nc2ccccc2C)cc1OCC	5.4%
CCOC(=O)C1(C(F)(F)F)N=C(C(F)(F)F)Nc2ccc(F)cc21 (stereo not shown)	-0.636%
CN(C)c1ccc(/C=C2\C(=N)N3N=C(CC(=O)N4CCCC4)SC3=NC2=O)cc1Br	4.09%
O=C(O)CCN1C(=O)C2C3c4ccccc4C(c4ccccc43)C2C1=O (stereo not shown)	7.11%
COc1ccccc1NC(=O)/C=C/c1ccc2c(c1)OCO2	-8.32%
CCN(C(=O)COC(=O)CN(C)S(=O)(=O)c1ccc(NC(C)=O)cc1)C1CCS(=O)(=O)C1 (stereo not shown)	15.7%
C#CCOCCOCCOCCNc1nc(N2CCOCC2)nc(N2CCN(C(=O)[C@H](Cc3ccc(O)cc3)n3cc([C@@H](N)C(C)CC)nn3)CC2)n1.Cl (stereo partly shown)	10.1%
O=C(COC(=O)c1cccnc1Cl)c1ccc2c(c1)OCCO2	-2.77%
C#CCNC(=O)C1=C[C@H](c2csc3ccccc23)C[C@H](OCc2ccc(CO)cc2)O1	-10.1%
O=C(Cc1ccccc1[N+](=O)[O-])NNC(=O)Nc1ccc2c(c1)OCO2	1.25%
Cc1ccccc1NC(=O)Cn1nnc2ccccc21	-12%
O=C1C2ON(c3ccccc3)C(c3cccnc3)C2C(=O)N1Cc1ccccc1 (stereo not shown)	-50.8%
CN(C(=O)/C=C/c1ccc2c(c1)OCO2)c1ccccc1	-4.59%
O=C(Cn1c(=S)[nH]c2ccccc2c1=O)N1CCc2ccccc2C1	17.3%
CCOc1ccc2nc(NC(=O)C3CCCN(S(=O)(=O)c4cccc5nonc45)C3)sc2c1 (stereo not shown)	-4.36%

Structure (SMILES)	hERG current change (%, negative = inhibition) at 10uM
COc1c2c(cc3oc(=O)c4c5ccc(O)cc5oc4c13)OC(C)(C)CC2	19.8%
COc1ccccc1CNC(=O)[C@@H]1CCCN1S(=O)(=O)c1ccc(C)cc1	-10.4%
O=C(NNC(=O)c1ccc(Oc2ccc(C3SCCS3)cc2)o1)c1ccc(Cl)cc1	8.53%
O=C1OC(N2C(=O)CC[C@H]2C(=O)Nc2ccc3c(c2)OCO3)c2ccccc21 (stereo partly shown)	2.99%
COC(=O)c1sc(NC(=O)c2cc(-c3ccccc3)nc3ccccc23)c(C#N)c1C	-2.37%
Cc1ccc2c(c1)c(C)c(C)n2CC(O)Cn1nc(C)c(Br)c1C (stereo not shown)	12%
CCC(C)N1C(=O)CCC1C(=O)NCCc1ccc(Cl)cc1 (stereo not shown)	-3.57%
Cc1onc(-c2ccccc2)c1C(=O)NC(C)c1ccccc1 (stereo not shown)	12.7%
Cc1ccc(C)c(N2CC(O)(c3cccs3)[N+]3=C2CCCC3)c1.[Br-] (stereo not shown)	-23%
CCOC(=O)C1CCN(C(=O)Cn2nc(CC)n3cccc3c2=O)CC1	-0.254%
CCOC(=O)/C=C/c1nc(C(=O)OCC)c(C)c(=O)[nH]1	25.5%
CCCc1c(C(=O)N/N=C/c2cccc3ccccc23)nnn1-c1nonc1N	12.4%
CN1CCN(C(=O)C2=C[C@@H](C3CCCCC3)C[C@@H](OCCCCO)O2)CC1	-8.64%
Cc1ccc(CN(C(=O)c2ccco2)C(C(=O)NC2CCCC2)c2cccnc2)cc1 (stereo not shown)	-1.98%
Cn1c(Cn2cnc(Cl)c2Cl)nc2ccccc21	-0.754%
O=C(Cc1ccccc1)NCC(=O)OCC(=O)c1cccc([N+](=O)[O-])c1	-1.23%
CCOC(=O)C1(Cc2ccc(OC)cc2)CCN(C(=O)CCc2cccnc2)CC1	-10.9%
COc1ccc(C(=O)Nc2ccccc2C(=O)N2CCOCC2)cc1OC	18.7%
Cc1ccc(-n2c(=O)c(C#N)cc3c(=O)n4cccc(C)c4nc32)cc1	1.03%
